# In article PMC6919601, “Identification of Plasmodium dipeptidyl aminopeptidase allosteric inhibitors by high throughput screening” (PLoS ONE, 2019):
# The campaign covered roughly 110,000 compounds. About 230 (0.21%) showed an effect of 50% or more. The list shows a part of the results.
# Molecular target: DPAP1 (Plasmodium falciparum, UniProt Q8IIJ9)
# Assay: primary screen, percent inhibition; read by cleavage of a fluorogenic dipeptide substrate; higher = more effect of the substance
# Parameters: species or system P. falciparum D10 trophozoite lysates; single well
# 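Further: 30 min substrate incubation versus DMSO and 10 µM JCP410 controls.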
# DPAP1, sequence (Q8IIJ9 whole entry, looked up): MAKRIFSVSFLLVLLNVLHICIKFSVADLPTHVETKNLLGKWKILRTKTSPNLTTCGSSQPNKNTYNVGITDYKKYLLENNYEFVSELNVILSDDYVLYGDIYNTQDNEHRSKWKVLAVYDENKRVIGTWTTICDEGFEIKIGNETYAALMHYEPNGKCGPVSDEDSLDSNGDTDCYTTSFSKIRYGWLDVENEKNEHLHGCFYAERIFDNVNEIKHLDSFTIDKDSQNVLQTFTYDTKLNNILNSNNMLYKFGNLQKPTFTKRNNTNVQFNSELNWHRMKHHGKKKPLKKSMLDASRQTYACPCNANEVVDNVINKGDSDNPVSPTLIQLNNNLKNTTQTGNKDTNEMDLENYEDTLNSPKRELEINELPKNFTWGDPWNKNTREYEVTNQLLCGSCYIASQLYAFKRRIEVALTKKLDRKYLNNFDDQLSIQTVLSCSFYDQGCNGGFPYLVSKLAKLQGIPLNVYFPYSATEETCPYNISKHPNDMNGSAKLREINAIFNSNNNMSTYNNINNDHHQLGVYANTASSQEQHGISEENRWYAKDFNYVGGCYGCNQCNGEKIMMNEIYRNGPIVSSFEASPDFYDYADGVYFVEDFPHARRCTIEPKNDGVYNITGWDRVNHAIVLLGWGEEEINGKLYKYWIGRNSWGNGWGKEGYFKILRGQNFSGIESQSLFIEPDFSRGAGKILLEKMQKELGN
row,Structure (SMILES),% Inhibition @ 10 uM [%]
1,COc1ccc(S(=O)(=O)NC(C)C)cc1C(=O)N1CCOCC1,1.32
2,Fc1ccc(-c2nnc(S)n2CCCN2CCOCC2)cc1,-3.87
3,COc1ccc(OC)c(NC(=O)CN(C2CCCCC2)S(C)(=O)=O)c1,0.408
4,COC(=O)C1=C(C)N(CCc2ccccc2)C(=O)/C1=C\c1cccs1,-15.6
5,O=C(NCc1cccnc1)c1cc(S(=O)(=O)N2CCCCC2)ccc1Cl,11.7
6,CCc1ccc(CNCc2c(C(=O)O)n(C)c3cc(OC)ccc23)cc1,-0.712
7,C=CCN(C(=O)C1CCC(CNS(=O)(=O)c2cccc3nsnc23)CC1)C1CCCCC1 (centres unmarked),-0.465
8,CCOc1ccc(NC(=O)C2CC(=O)N(CC)/C(=N/c3cccc(F)c3)S2)cc1 (centres unmarked),-6.94
9,Cc1ccc(C(C)C)c(OC/C(O)=C(\C#N)c2nc3ccccc3[nH]2)c1,-3.78
10,COc1ccc(-c2c3c(=O)n(C)c(=O)n(C)c3cn2-c2cccc(C#N)c2)cc1,0.366
11,NS(=O)(=O)c1ccc(CCNC(=O)c2cc(-c3cccs3)nc3ccccc23)cc1,-5.67
12,OC1CCN(Cc2ccc(F)cc2)C1 (centres unmarked),-5.31
13,COc1cc2c(cc1OC)CN(S(=O)(=O)c1ccc(OC(F)(F)F)cc1)CC2,0.248
14,Cc1n[nH]c(C)c1S(=O)(=O)N1CCCC(C(=O)Nc2nccs2)C1 (centres unmarked),2.39
15,COc1ccc(/C=C2\CCc3ccccc3C2=O)cc1Br,0.287
16,O=C(Nc1ccccc1F)C(F)(F)C(F)(F)C(=O)Nc1ccccc1F,8.05
17,COCc1nn2cc(-c3cccc(OC)c3)nc2s1,2.41
18,Cc1cc(-c2ccccc2)nc2cc(C(=O)O)nn12,-5.28
19,COc1ccc(NC(=O)c2cccc(OC(F)F)c2)c(C)c1,-5.6
20,CCC(C)c1ccccc1OCC(=O)Nc1ccc(S(=O)(=O)N2CCOCC2)cc1 (centres unmarked),1.57
21,O=C1C(Cl)=C(Nc2ccccc2O)C(=O)N1c1cccc(Cl)c1,-1.07
22,Cn1ncc2c(NCCO)ncnc21,0.925
23,CC1CCCC(C)N1CCCNC(=O)CCn1c(=O)c2cccn2c2cccnc21 (centres unmarked),-1.57
24,Cc1ccc(NC(=O)/C=C/c2ccccc2Cl)cc1,-3.94
25,CCn1cc(/C=C(\NC(=O)c2ccccc2F)C(=O)N2CCN(C)CC2)c2ccccc21,-0.0235

row,Structure (SMILES),% Inhibition @ 10 uM [%]
1,CCN(CC)C(=O)CN(c1cc(C)ccc1OC)S(=O)(=O)c1ccc(C)cc1,0.324
2,CCC1(C)CC(=O)c2c(ccc3oc(C(=O)N4CCC5(CC4)OCCO5)c(C)c23)O1 (centres unmarked),-0.447
3,CCOC(=O)N1CCN(C2=NS(=O)(=O)C(c3ccc(C)cc3)=C2C)CC1,5.42
4,COc1ccc(C2NC(C(=O)O)Cc3c2[nH]c2ccccc32)c(OC)c1OC (centres unmarked),-1.8
5,CC1C=CCC2C(=O)N(c3cccc(Cl)c3)C(=O)C12 (centres unmarked),-3.01
6,O=C(O)c1ccc2c(c1)C(=O)N(c1ccncc1)C2=O,-1.77
7,O=C(NCCc1ccccc1)c1nnc(Cc2ccc(F)cc2Cl)o1,0.974
8,C=CCn1c(SCc2cc(C(C)=O)ccc2OC)nnc1-c1cc2ccccc2o1,-2.91
9,COCC(=O)Nc1cc(Cl)ccc1C,0.467
10,Cc1cc(=O)n2nc(N(C)CC(=O)NCCc3ccc(Cl)cc3)sc2n1,1.38
11,C=CCn1c(C)nc2c(cnn2-c2ccccc2)c1=O,-3.27
12,CN1CCN(CCC/N=c2\c([N+](=O)[O-])c(O)oc3ccccc23)CC1,-8.15
13,CC1CCN(c2c(NCc3ccc(C(=O)N(C)C4CCCCC4)cc3)c(=O)c2=O)CC1,-0.522
14,O=C1NC(=O)/C(=C\c2ccc(O)c(Br)c2)S1,-0.357
15,CC1=C(C(=O)N2CCCC2)C2(CCN(Cc3ccccc3)CC2)OC1=O,-4.38
16,COc1ccc(S(=O)(=O)N(CC(=O)Nc2c(Cl)cccc2Cl)Cc2ccccc2)cc1,-11.9
17,O=C(Nc1ccc(Cl)cc1Cl)c1ccc(Cl)cc1,2.94
18,Cc1ccc(NS(=O)(=O)c2ccc(-n3cccn3)cc2)nc1,1.27
19,COc1ccc(C=C2C(=O)OC3(CCCCC3)OC2=O)c(OC)c1OC,-5.14
20,COc1ccc(CNc2ccc(C)cc2Br)cc1OC,-5.98
21,CCSc1nnc(-c2ccccc2Cl)o1,1.83
22,CCOC(=O)c1sc2nc(C)cc(C)c2c1NC(=O)c1ccccc1OC,-0.403
23,CCc1nnc2c3ccccc3nc(NCCc3ccccc3)n12,3.59
24,CC(=O)N1C(=O)C2(C(C#N)=C(N)Oc3[nH]nc(-c4cccs4)c32)c2ccccc21 (centres unmarked),0.777
25,C#CCSc1nc2c(c(=O)n1-c1ccc(OC)cc1)C1(CCCCC1)Cc1ccccc1-2,-3.77

row,Structure (SMILES),% Inhibition @ 10 uM [%]
1,Cc1ccc(CCNC(=O)CCCn2ccc3cc(S(=O)(=O)N4CCCC4)ccc32)cc1,-7.94
2,COc1ccc(CN2CCN(S(=O)(=O)c3cccc4nsnc34)CC2)c(OC)c1OC,-5.03
3,O=C(CCCN1C(=O)c2cccc3cccc(c23)C1=O)N1CCN(c2ccccc2)CC1,8.06
4,COc1cccc(Nc2ncccc2[N+](=O)[O-])c1,-0.0953
5,c1ccc(CN2CCN(C3CCCCC3)CC2)cc1,-3.85
6,O=C1c2cccnc2C(=O)N1CCc1ccc(S(=O)(=O)NC2CCCCCCC2)cc1,-0.231
7,COc1ccc(OC)c(/C=C2/Sc3ccccc3C2=O)c1,2.76
8,CC(C)C[C@H](NC(=O)OCCN1C(=O)c2ccccc2C1=O)C(=O)NCC#N,-3.04
9,Cc1ccc(CN2CCC(CNS(=O)(=O)c3ccc(-c4ccc(O)nn4)s3)CC2)cc1,9.54
10,CCCCN1C(=O)N(C)C2C1N(C)C(=O)N2CCCC (centres unmarked),0.215
11,CCCN1Cc2cccc(C(=O)NC(C)c3ccc4c(c3)OCCO4)c2C1=O (centres unmarked),1.23
12,CC1CCN(c2c(-c3ccccc3)c(=O)c2=O)CC1,5.13
13,COc1ccc(/C=C2\SC(=O)N(Cc3ccccc3)C2=O)cc1OC,-4.5
14,O=C1C(Cl)=C(NCC2CCCO2)C(=O)N1c1ccccc1 (centres unmarked),1.03
15,N#Cc1c(N)n(-c2ccc(O)cc2)c2nc3ccccc3nc12,-1.8
16,CCC(=O)Nc1ccc(S(=O)(=O)N2CCCC2)cc1,-2.3
17,Cc1ccc(C(=O)NC2CCCCC2)cc1S(=O)(=O)N1CCCCC1,1.35
18,CN(C)c1oc(COc2ccccc2F)nc1C#N,7.16
19,Cn1c(=O)c2nc(Cl)n(CC(=O)c3ccc(Cl)cc3)c2n(C)c1=O,-0.63
20,COc1ccccc1OCCn1c(C)nc2cc(C)c(C)cc21,-8.57
21,Cc1ccccc1-c1nc2c(=O)n(C)c(=O)nc-2n(C)n1,8.19
22,O=C(Nc1cccc2cccnc12)c1ccc(Cl)cc1,-1.43
23,COCCNC(=O)C1CCCN(c2nnc(C)c3c(C)n(-c4ccc(Cl)cc4)nc23)C1 (centres unmarked),0.186
24,Cc1nc(C)c(NC(=O)NC2CCCCC2)cc1NC(=O)NC1CCCCC1,4.18
25,COc1ccc(-n2c(=S)[nH]c3c(c2=O)C2(CCCCC2)Cc2ccccc2-3)cc1,3.42

row,Structure (SMILES),% Inhibition @ 10 uM [%]
1,CCOC(=O)C1/C(=N/O)C2CCN1CC2 (centres unmarked),-1.42
2,N#CC1=C(N)Oc2[nH]nc(-c3cccnc3)c2C1c1cc(F)ccc1F (centres unmarked),-4.61
3,CCC(C)N(CCCNC(=O)c1sc2nc3n(c(=O)c2c1C)CCCCC3)Cc1ccco1 (centres unmarked),-6.34
4,CCO/C(O)=C1/C(C)=Nc2nc3ccccc3n2C1c1cc(Br)ccc1OC (centres unmarked),1.73
5,COc1ccc(/C=C2\N=C(c3ccc(Cl)c(Cl)c3)OC2=O)c(OC)c1,-5.03
6,CC(=O)c1ccc(N2CCN(Cc3cc(Br)cs3)CC2)cc1,2.41
7,CC[C@H](NC(=O)[C@H](C[C@H](C)c1ccccc1)NC(=O)c1ccc(-c2ccccc2Cl)cc1)C(=O)c1nc2ccccc2o1,-3.48
8,Cc1ccc(C(=O)Nc2ccccn2)cc1S(=O)(=O)N1CCOCC1,8.97
9,CC(C)C[C@H](NC(=O)c1cc(-c2ccc(Cl)cc2)n(-c2ccc(S(N)(=O)=O)cc2)n1)C(=O)NCC#N,5.76
10,COc1ccc(C2C3=C(O)CC(C)(C)CC3=Nc3nc(-c4cccc(O)c4)nn32)cc1 (centres unmarked),3.59
11,CCOc1ccc(-c2nc(C#N)c(NC3CC3)o2)cc1,0.315
12,O=C(CN(c1ccccc1)S(=O)(=O)c1ccccc1)N1CCC(Cc2ccccc2)CC1,3.81
13,O=C(CN1CCOCC1)N1CCN(c2ccc3ccccc3n2)CC1,-1.22
14,Cc1ccc(-c2nc(C(=O)N3CCN(Cc4ccc5c(c4)OCO5)CC3)c3n2CCCCC3)cc1,-1.69
15,O=C(CCN1C(=O)c2ccccc2Sc2ncccc21)NC1CCCc2ccccc21 (centres unmarked),7.39
16,CCCn1c2ccccc2c2cnn(CC(=O)N3CCc4cc(OC)c(OC)cc4C3C)c(=O)c21 (centres unmarked),7.4
17,CCOC(=O)C1=C(C)N=C2SCC(=O)N2C1c1ccc2c(c1)OCO2 (centres unmarked),4.88
18,Cc1c(Cl)cccc1NC(=O)C(C)C,2.13
19,COc1cccc(-c2[nH]nc3c2C(c2ccco2)N(C)C3=O)c1 (centres unmarked),3.88
20,CCCCCNC(=O)CCNC(=O)c1cc(OC)c(OC)c(OC)c1,1.42
21,COc1ccc(OC)c(CN2CCN(Cc3ccccc3C)CC2)c1,-7.9
22,CCCC(=O)n1nc(-c2ccco2)nc1NCc1ccc(OC)cc1,-1.47
23,CCCCSc1nnc2n(/N=C/c3ccc(Cl)cc3Cl)cnn12,-3.48
